From PMC7819943, “Rice protein-binding microarrays: a tool to detect cis-acting elements near promoter regions in rice” come the findings set out here.

This is one part of the list.

In the experiment the target is T1, OsWOX13 (Oryza sativa, UniProt Q5QMM3 1-267).
T1 sequence: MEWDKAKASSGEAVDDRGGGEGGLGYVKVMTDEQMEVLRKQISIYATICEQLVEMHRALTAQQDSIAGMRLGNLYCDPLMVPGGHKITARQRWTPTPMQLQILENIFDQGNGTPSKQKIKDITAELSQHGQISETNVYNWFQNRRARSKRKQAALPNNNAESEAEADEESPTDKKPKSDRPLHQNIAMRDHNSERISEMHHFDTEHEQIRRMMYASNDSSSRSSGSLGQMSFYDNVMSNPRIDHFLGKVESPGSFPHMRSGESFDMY
The experiment can be described thus: protein-binding microarray (RPBM); PBS, 2% BSA, 51.3 ng/ul salmon testes DNA, 50 uM zinc acetate, 200 nM TF, 25 C, 1 h; high values mean tight binding. To be noted: protein: recombinant; tags: N-terminal polyhistidine and DsRed monomer fusion (pET32a); label: CyDye5-dUTP incorporated in the synthesized complementary strand; 3' TTTTT single-stranded linker to array surface; dsDNA, one strand shown. In a few lines:
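For the binding signal, per-feature fluorescence intensity was read in arbitrary units on an Axon 4000B scanner. Before scanning, a 2% BSA-blocked custom Agilent array made double-stranded with Cy5-dUTP was washed after 1 h at 25 °C with 200 nM protein and 50 µM zinc acetate. The proteins were Ni–NTA-purified transcription factors with N-terminal polyhistidine and DsRed fusions, expressed in E. coli BL21-CodonPlus.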
Turning to “TTCTGGGTTAATTGGATCCATGCCATTATAAATTTGCTAGCGGAGTCACCTAGTGCAG”, the binding signal is 30900 fluorescence intensity (a.u.).
Take “GTTGATTTGTGTTTTGACTTTTGAAAAGACTACTGTTACTCGGAGTCACCTAGTGCAG”: the binding signal was 27500 fluorescence intensity (a.u.).
The value for “TAAATGATTTCTAGATTTGGCAATAGAACGGTCAGTTGATCGGAGTCACCTAGTGCAG” was 10900 fluorescence intensity (a.u.); that for “ATAATAGTTAATATTTAATTAATCATGTGCTAATAAACTTCGGAGTCACCTAGTGCAG” was 5240 fluorescence intensity (a.u.); that for “AGATTAATCATATAAAATTAATGTTATTAGATTTATCATTCGGAGTCACCTAGTGCAG” was 27100 fluorescence intensity (a.u.).
On to “ACCCATATAATTAAGGTGCCAATGCTGCTAATACTCTCTCCGGAGTCACCTAGTGCAG”, for which the binding signal was 4380 fluorescence intensity (a.u.).
For “ATGTTGATTGTCTAAAATCACAGATTTAGCACATTATCGACGGAGTCACCTAGTGCAG” the value was 29800 fluorescence intensity (a.u.); for “CAACAAATTCATCATAATTTCCGCCGCAAATGTCACACATCGGAGTCACCTAGTGCAG”, 5240 fluorescence intensity (a.u.).
Regarding “TATAGACTAATTAGGTTCAAAAGATTCGTCTTGTTATTTCCGGAGTCACCTAGTGCAG”, the binding signal is 10700 fluorescence intensity (a.u.).
As to “TGTTATATTTTCAATGACATGGATTGAATTAAACCCTTACCGGAGTCACCTAGTGCAG”, the binding signal was 4740 fluorescence intensity (a.u.).
The value for “TTGATTGAAATTGGAGATGATGTGACTGAAAAGTTGTGTGCGGAGTCACCTAGTGCAG” was 41800 fluorescence intensity (a.u.); that for “CATCTGGCGATTGCATATTAATTTGCATGGCGAAGCTTCCCGGAGTCACCTAGTGCAG” was 5830 fluorescence intensity (a.u.).
The value for “CATGTTAATTTAAGATGATAGTCGGAATCCTAATTGCAGCCGGAGTCACCTAGTGCAG” was 28900 fluorescence intensity (a.u.).
With “AGCTGTTAGACTGCAATCTTAATTGCTGCATCGTTTCACTCGGAGTCACCTAGTGCAG”, the binding signal was 12100 fluorescence intensity (a.u.).
For “GCATCGGAATTTTGGATGTGATTGCCTGCATCGGATGGATCGGAGTCACCTAGTGCAG” the value was 18200 fluorescence intensity (a.u.); for “TGTTATTATCCCAATTAACAAAACACGAGACCACATTTTACGGAGTCACCTAGTGCAG”, 3240 fluorescence intensity (a.u.).
For “ATGTTTACTAGTTAACTAGCATTCCTTTAATTTCATATTTCGGAGTCACCTAGTGCAG” the value was 5090 fluorescence intensity (a.u.); for “GGATGTCATGATAATTGACTTATGACAATGTGATTATTTCCGGAGTCACCTAGTGCAG”, 19700 fluorescence intensity (a.u.).
The value for “TCGGGATTGAAACCAAGCACCCCTTGCCACCACACTAGCACGGAGTCACCTAGTGCAG” was 13800 fluorescence intensity (a.u.); that for “TTTAGGTGATTAGCCTGTTGTATTGCGATTTTCTATATGGCGGAGTCACCTAGTGCAG” was 23800 fluorescence intensity (a.u.); that for “TCATTTTAATTGACGCTTTGGACAATGACACGTTCTACAACGGAGTCACCTAGTGCAG” was 29200 fluorescence intensity (a.u.).
Regarding “ACGGGGTAGGTAATTGGGAGAGAATTCCTCCTTTACTTTTCGGAGTCACCTAGTGCAG”, the binding signal is 5100 fluorescence intensity (a.u.).
For “CATTGATCAATTATGGCTTTAAATATAAATATACCACCAGCGGAGTCACCTAGTGCAG” the value was 29500 fluorescence intensity (a.u.); for “GTAGGAAATCACCACCAATCCCACCGATTCCTCTCCACCGCGGAGTCACCTAGTGCAG”, 3450 fluorescence intensity (a.u.).
The value for “CTAATTAAAACCGTTATAATAGGTTCTATGACAGTATTGCCGGAGTCACCTAGTGCAG” was 6250 fluorescence intensity (a.u.); that for “ATTAACCATAACCTAATTTGGATAAGCCGACATGGATCGGCGGAGTCACCTAGTGCAG” was 8230 fluorescence intensity (a.u.); that for “CTTTTGGTATGCTTGATTGTTGTGTTTTGATCCTACAAATCGGAGTCACCTAGTGCAG” was 4580 fluorescence intensity (a.u.).
For “ATGCTAACTTGAGGTGATCATAATCCTGATTGCATCTCATCGGAGTCACCTAGTGCAG” the value was 6000 fluorescence intensity (a.u.); for “TTGGCTGAACATCATAGTTTTGATTGAGCCCACAGCAGAACGGAGTCACCTAGTGCAG”, 4280 fluorescence intensity (a.u.).
In the case of “TTCAGATGTATATATAATTAATTGTACTCCTAGTGCACACCGGAGTCACCTAGTGCAG”, the binding signal was 13800 fluorescence intensity (a.u.).
In the case of “TTTTGACTGCAGAATCCTAATCCATTCTCTCACATGGCAGCGGAGTCACCTAGTGCAG”, the binding signal was 16300 fluorescence intensity (a.u.).
For “CCACGTAACATCCATTAAATTACTTGGAGTCTTCCTCGCACGGAGTCACCTAGTGCAG” the value was 6050 fluorescence intensity (a.u.); for “TTTTCATCTTAATTATACAGGTAGCAAGAACTGGCATGGCCGGAGTCACCTAGTGCAG”, 3780 fluorescence intensity (a.u.).
For “GGAGGACATTGTGATTGGAAATAAATAGATGCAGAGGCAACGGAGTCACCTAGTGCAG”, the binding signal is 22600 fluorescence intensity (a.u.).
Consider “TATTATTGTTTGTCATTAGCAATCTTAAGTTATGCATAGACGGAGTCACCTAGTGCAG”, for which the binding signal is 5930 fluorescence intensity (a.u.).
Take “TGTAATTGGCTGAGAGACCGTAACAACGTGACATGGCTCACGGAGTCACCTAGTGCAG”: the binding signal is 29700 fluorescence intensity (a.u.).
For “CCTTTTGTGACCGGTTTTGATTAGTTATGGGACGCGGAATCGGAGTCACCTAGTGCAG” the value was 5300 fluorescence intensity (a.u.).
For “AATTCAATTAGAATGACAATGTAGAAGTGCTAAATTATCACGGAGTCACCTAGTGCAG” the value was 9940 fluorescence intensity (a.u.); for “ACCTCAATGATTAATTTGCTCGTGGGCCCCACCCCACCACCGGAGTCACCTAGTGCAG”, 42500 fluorescence intensity (a.u.); for “GGATAAAATTTAAATTGTACCAGTTTACGACGAATTACATCGGAGTCACCTAGTGCAG”, 8600 fluorescence intensity (a.u.).
The value for “ATCCCTAATACGATTTACATGATTAGAGGAGAGACAATTTCGGAGTCACCTAGTGCAG” was 4470 fluorescence intensity (a.u.); that for “ATAAATCACATATAACAAAATAGGACTTGAACTACTCCTGCGGAGTCACCTAGTGCAG” was 3720 fluorescence intensity (a.u.).
